The record followed here is ChEMBL document CHEMBL1201862, “PubChem BioAssay data set” (2004).

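48-hour exposure; five concentrations; linearly interpolated endpoints. GI50: concentration for 50% inhibition of growth.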 The source made the active and inactive calls. Cut-off read from the data, not from the text of the source: active = GI50 up to about 1.1 µM and inactive = higher.

The test system of this assay is NCI-H322M. The experiment in a line: growth of human tumour cells (NCI), 48 h.
On to `Cc1nc(-n2nc(-c3ccccc3)cc2-c2ccccc2)sc1C(=O)/C=C/c1ccc(Cl)cc1`, for which the GI50 was inactive: 15.9 µM.

For the compound `NS(=O)(=O)c1ccc(NC(=O)Nc2cccc3ccccc23)cc1`, the GI50 is inactive: 45.8 µM.

`CC(C)CNc1nc(N)nc(O)c1NC=O`: the GI50 is inactive: > 100 µM.

For `COc1cc(C(c2cc3c(cc2O)OCO3)N2CCCC2)cc(OC)c1OC` (stereo unspecified), the GI50 was inactive: 32.8 µM.

Take `Cc1nc(O)c(O)c(CN2CCCCC2)n1`: the GI50 was inactive: > 100 µM.

On to `CCN(CC)CCn1ncc2c(N)ncnc21`, for which the GI50 was inactive: > 100 µM.

In the case of `O=C(CC(O)(c1ccccc1)c1ccc(Cl)cc1)NC(=O)c1ccccc1O` (stereo unspecified), the GI50 was inactive: 5.19 µM.

As for `Cc1ccccc1NC(=S)N/N=C1\C(=O)Nc2ccccc21`, the GI50 is inactive: > 100 µM.

For `Cc1nc2sccn2c1/C=C1/C(=O)Nc2cccc(Cl)c21`, the GI50 was inactive: > 100 µM.

For `Nc1nc(N)c(-c2ccccc2)c(CCC(=O)Nc2ccc(Cl)cc2)n1`, the GI50 was inactive: > 100 µM.

Turning to `O=C1/C(=N/c2ccccc2)Oc2cc(O)ccc21`, the GI50 was inactive: > 100 µM.

For the compound `CCCCOC(=O)c1cc(C(=CCC[C@H]2CC[C@@]3(C)[C@@H](CC[C@@H]4[C@@H]3CC[C@]3(C)[C@@H](C(C)CCCC(C)C)CC[C@@H]43)C2)c2cc(Cl)c(O)c(C(=O)OCCCC)c2)cc(Cl)c1O` (stereo partly specified), the GI50 was inactive: > 50 µM.

`CC(=O)NC(=N/N=C1/C(=O)Nc2ccc(C)cc21)NC(C)=O`: the GI50 is inactive: > 100 µM.

Consider `CCCOC(=O)C1C2CCC(O2)C1C(=O)O` (stereo unspecified), for which the GI50 is inactive: 53.6 µM.

Regarding `NCCCCC(=O)c1cccnc1`, the GI50 was inactive: > 100 µM.

For the compound `O=C1Cc2ccccc2N1/N=C\c1ccc([N+](=O)[O-])cc1`, the GI50 was inactive: > 100 µM.

`COC(=O)C1CCC(=O)N1C(c1cc(OC)c(OC)c(OC)c1)c1cccc2ccccc12` (stereo unspecified): the GI50 was inactive: > 100 µM.

Consider `Cc1nn(CNc2ccc(F)c(Cl)c2)c(=S)n1/N=C/c1ccc(-c2ccc(Cl)cc2Cl)o1`, for which the GI50 is inactive: 18.6 µM.

Regarding `O=C1c2ccccc2-c2nnc3c(c21)-c1ccccc1C3`, the GI50 is inactive: > 100 µM.

Regarding `N/N=C1\C(=O)N(C2CCCCC2)C(=O)C1C(=O)NC1CCCCC1` (stereo unspecified), the GI50 was inactive: > 100 µM.

On to `CC1=C(/C=C/C(C)=C/C2CC(N(C)C)=CC(=O)O2)C(C)(C)CCC1` (stereo unspecified), for which the GI50 was inactive: 17 µM.

For the compound `Cc1cc2c(cc1-c1cc3c(cc1C)C(C(C)C)=C(O)C(=O)/C3=C\Nc1c(C)n(C)n(-c3ccccc3)c1=O)/C(=C/Nc1c(C)n(C)n(-c3ccccc3)c1=O)C(=O)C(O)=C2C(C)C`, the GI50 is inactive: > 100 µM.

Turning to `O=C1C(=O)N(c2nccs2)C(=O)C(=O)C1c1nc2ccccc2s1`, the GI50 was inactive: > 100 µM.

Consider `COc1cc2c(cc1OC)C(Cl)C(c1ccc(Br)cc1)=C2Cl` (stereo unspecified), for which the GI50 is inactive: 15.6 µM.

For the compound `O=c1c(Br)cc2nc3ccccc3sc-2c1Br`, the GI50 was inactive: > 100 µM.

With `CCOC(=O)CCC(C(=O)OCC)n1nnc2ccc(Nc3c(C)[n+]([O-])c4ccc(Cl)cc4[n+]3[O-])cc21` (stereo unspecified), the GI50 is inactive: 64.9 µM.

`COc1cc(/C=C\C(=O)O)ccc1OCc1ccccc1`: the GI50 is inactive: > 100 µM.

Regarding `COC(=O)NC(C(F)(F)F)(C(F)(F)F)P1(=O)OCCCO1`, the GI50 was inactive: 53.5 µM.

`Cc1cc2nc3c(C#N)c4c(c(Nc5ccc(F)cc5)n3c2cc1C)CCC4`: the GI50 was inactive: > 100 µM.

Take `CCCCCCNC(=O)c1cnc(Cl)cn1`: the GI50 was inactive: 3.33 µM.

With `N=c1oc2ccccc2cc1C(=O)Nc1cccc2ccccc12`, the GI50 is inactive: > 100 µM.

On to `COc1ccc(CN2C(=O)C(Cc3cc(OC)c(OC)c(C)c3OC)NC(=O)/C2=C/c2cc(OC)c(OC)c(C)c2OC)cc1` (stereo unspecified), for which the GI50 was inactive: > 100 µM.

For `COc1cc2oc(=O)cc(C)c2cc1[N+](=O)[O-]`, the GI50 was inactive: > 100 µM.

As for `COC(=O)c1c(C)cccc1C1CN=NC12Cc1cccc(C)c1C2=O` (stereo unspecified), the GI50 is inactive: 44 µM.

Turning to `CCc1c[n+]2c(cc1C1=CN3c4ccccc4[C@]45CCN6C/C(=C/CO)[C@H](C[C@H]64)[C@@H]([C@@H]1O)[C@H]35)-c1[nH]c3ccccc3c1CC2`, the GI50 was inactive: > 50 µM.

Take `CCC1(c2ccc(N3C(=O)c4cccc5cc([N+](=O)[O-])cc(c45)C3=O)cc2)CCC(=O)NC1=O` (stereo unspecified): the GI50 was inactive: > 44.4 µM.

As for `Cc1nn(C)c2nc3ccc(Cl)cc3c(-c3ccccc3)c12`, the GI50 is inactive: > 100 µM.

On to `COc1cc2c(c(O)c1OC)C(=O)C(Cc1ccc(O)cc1)CO2` (stereo unspecified), for which the GI50 is inactive: 78.7 µM.

For `CCCCC(C)(C/C=C/[C@@H]1[C@@H](C(O)CCCCCC(=O)OC)C(=O)C[C@H]1O[Si](C)(C)C(C)(C)C)O[Si](C)(C)C` (stereo partly specified), the GI50 is inactive: > 100 µM.

Regarding `COc1ccc(C(SC2C(O)C(CO)OC2n2ccc(N)nc2=O)(c2ccccc2)c2ccc(OC)cc2)cc1` (stereo unspecified), the GI50 was inactive: 12.2 µM.

Regarding `COc1ccc(Cl)cc1NC(=O)O/N=C(\Cl)C(C)C`, the GI50 was inactive: 18.4 µM.

Regarding `c1ccc(NNN2NC(c3ccccc3)C2c2ccccc2)cc1` (stereo unspecified), the GI50 is inactive: > 100 µM.

For the compound `Oc1ccccc1/C=N/c1ccc(-c2nc3ccccc3[nH]2)cc1`, the GI50 was inactive: 74.5 µM.

As to `Cc1cccc2[nH]c3c(c(O)cc4[nH]c5cccc(C)c5c(=O)c43)c(=O)c12`, the GI50 is inactive: > 10 µM.

`CCCCCCCCCCCCCCCCNc1nc(=O)n(C2OC(C)C(O)C2O)cc1F` (stereo unspecified): the GI50 was inactive: 18.2 µM.

Consider `CCCSc1ccc2[nH]c(N3C(=O)/C(=C/c4ccco4)N=C3c3ccccc3)cc2c1`, for which the GI50 is inactive: 19.3 µM.

Consider `C=CCNC(=O)C(C)C1CCC2(C)C=CC(=O)C(C)=C2C1O` (stereo unspecified), for which the GI50 is inactive: > 100 µM.

As to `COc1cc2c(cc1OC)[Se]c1cc(OC)c(OC)cc1[Se]2`, the GI50 was inactive: > 10 µM.

Consider `NC(=O)Nc1c(Cl)cc(S(N)(=O)=O)cc1Cl`, for which the GI50 is inactive: > 100 µM.

As to `O=c1[nH]nc(Cc2ccccc2)n1/N=C/c1ccccc1O`, the GI50 was inactive: > 100 µM.

On to `CC(=O)CC(=O)CCCC(=O)Nc1ccc(Cl)cc1C`, for which the GI50 was inactive: > 100 µM.

In the case of `CC1=CC(=O)/C(=C/n2c(=S)[nH]c3ccccc32)C(=O)O1`, the GI50 was inactive: > 100 µM.

Consider `CN(C)CCNC(=O)c1ccc(NC(=O)c2nc([N+](=O)[O-])cn2C)cc1`, for which the GI50 was inactive: > 100 µM.

In the case of `CC(C)C(Sc1nc(N)nc2nc[nH]c12)C(=O)O` (stereo unspecified), the GI50 was inactive: > 100 µM.

As for `COc1ccc(C2c3cc4c(cc3OC(NCCO)C2C)OCO4)cc1` (stereo unspecified), the GI50 was inactive: 28.9 µM.

With `Cc1ncc([N+](=O)[O-])n1CCNCCCCn1ccnc1[N+](=O)[O-]`, the GI50 is inactive: > 100 µM.

For the compound `COC(=O)CCC(=O)c1ccc2c(c1)CC1(Cc3ccccc3C1)C2`, the GI50 was inactive: > 100 µM.

`CCOP(=O)(/C=C\n1ccc(N)nc1=O)OCC`: the GI50 was inactive: > 100 µM.

With `CCOC(=O)/C(=C\NC(C)(C)C)c1nc2ccccc2[nH]1`, the GI50 is inactive: 18.3 µM.

As to `O=c1/c(=C/c2ccc([N+](=O)[O-])o2)sc2n1[C@@H](c1ccc3c(c1)OCO3)C=C(c1cc(F)c(Cl)cc1Cl)N=2`, the GI50 is inactive: 38.3 µM.

As for `COC(=O)/C(C#N)=C(/NCc1ccccc1)Nc1ccccc1`, the GI50 is inactive: > 100 µM.

In the case of `N=C(N)NS(=O)(=O)c1ccc(Nc2c3ccccc3nc3c(C(=O)Nc4ccc(S(N)(=O)=O)cc4)ccc(Cl)c23)cc1`, the GI50 was inactive: > 100 µM.

Take `COc1cc(OC)c(/C=C2\N=C(C)N(Nc3nnc(NN4C(=O)/C(=C/c5c(OC)cc(OC)cc5OC)N=C4C)c4ccccc34)C2=O)c(OC)c1`: the GI50 was inactive: > 100 µM.

Regarding `O=c1c(Cc2ccc(Cl)cc2)nnc2sc(-c3ccc([N+](=O)[O-])cc3)nn12`, the GI50 is inactive: 25.3 µM.

As to `CC(=O)OC1/C(=C/c2ccc([N+](=O)[O-])cc2)C[C@H]2[C@@H]3CC=C4C[C@@H](OC(C)=O)CC[C@]4(C)[C@H]3CC[C@]12C` (stereo partly specified), the GI50 was inactive: > 100 µM.

In the case of `COc1ccc2c(c1)[nH]c1c(/C=C/c3ccccc3)nccc12`, the GI50 is inactive: 15.1 µM.

For `COC(=O)CC(=O)C[P+](c1ccccc1)(c1ccccc1)c1ccccc1`, the GI50 was inactive: > 218 µM.

On to `CC(C)(C)OC(=O)NC(Cc1ccc(O)cn1)C(=O)O` (stereo unspecified), for which the GI50 is inactive: > 100 µM.

As for `O=C1C2CCC(C2)C12CC1(c3ccccc3)C(=O)c3ccccc3N1O2` (stereo unspecified), the GI50 was inactive: > 100 µM.

`CCOC(=O)[C@]12C3C=CC(C3)C1C(=O)C1OC12` (stereo partly specified): the GI50 is inactive: > 100 µM.

With `COc1ccc(/C=N/c2nc3cc4sc(/N=C/c5ccc(OC)cc5)nc4cc3s2)cc1`, the GI50 is inactive: 65.6 µM.

Regarding `CCOC(=O)c1sc(N/N=C2\NC(=O)/C(=C/c3ccc([N+](=O)[O-])cc3)S2)nc1C`, the GI50 is inactive: 26.2 µM.

For the compound `Oc1ccc(O)c(Sc2nnc(CCCCCCCCc3nnc(Sc4cc(O)ccc4O)o3)o2)c1`, the GI50 was inactive: > 100 µM.

As to `O/N=N/c1ccc(Sc2ccc(/N=N/O)cn2)nc1`, the GI50 is inactive: > 100 µM.

Take `CCCCCCCCCCCCC(SCCNC(=O)CCNC(=O)C(O)C(C)(C)COP(=O)(O)OP(=O)(O)OCC1OC(n2cnc3c(N)ncnc32)C(O)C1OP(=O)(O)O)C(=O)NCC(N)=O` (stereo unspecified): the GI50 was inactive: 77.3 µM.

With `CCOC(=O)Cc1cc(=O)[nH]c(-n2[nH]c(C)c(CCO)c2=O)n1`, the GI50 is inactive: > 100 µM.

As to `O=c1oc2cccnc2n1CCN1CCN(c2ccc(Oc3ccccc3)cc2)CC1`, the GI50 was inactive: > 100 µM.

On to `CC1(C)OC1COc1c2occc2cc2ccc(=O)oc12` (stereo unspecified), for which the GI50 is inactive: > 100 µM.

As for `Oc1ccc(/C=N/c2nccs2)c(O)c1`, the GI50 is inactive: > 100 µM.

With `Cc1ccc2c(c1)NC(=O)CC(c1ccccc1)=N2`, the GI50 was inactive: > 100 µM.

For the compound `OCCCCn1cnc2c(O)ncnc21`, the GI50 is inactive: > 100 µM.
